Measurements taken from article PMC12136788.
The other results are listed elsewhere or left out.

T1: UNK ZnF1-6 (called full-length) (human, UniProt Q9C0B0 30-357)
T1 sequence: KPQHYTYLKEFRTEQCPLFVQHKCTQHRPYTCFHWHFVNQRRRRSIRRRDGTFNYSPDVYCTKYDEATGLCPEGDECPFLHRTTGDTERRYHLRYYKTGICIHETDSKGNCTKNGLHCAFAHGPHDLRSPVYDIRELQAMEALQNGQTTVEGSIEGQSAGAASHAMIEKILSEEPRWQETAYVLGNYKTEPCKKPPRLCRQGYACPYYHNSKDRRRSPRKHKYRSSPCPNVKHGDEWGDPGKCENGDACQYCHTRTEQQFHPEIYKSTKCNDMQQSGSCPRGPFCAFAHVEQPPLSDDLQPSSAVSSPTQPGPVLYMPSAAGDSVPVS

B1: chr18:70325936:70326038:+|CDS|ENSG00000170677|unk|total|mutant (ssRNA)
RNA: GGGAGUUCUACAGUCCGACGAUCAGCUUUCGCUCCCAUGGUAAAACACUUCACACCCGAAUUGAGCACUCAAAUGGCCGGUUCCGCUUUUAUGAACAGCCAGAUGUGGAAGGACAUACGUCCACCGUUGAUCUAAUUGAGCAUCAACAGAGGAUUGAGCAUCA
B2: chr6:44253573:44253761:+|CDS_3pUTR|ENSG00000096384|msi1_unk|total|mutant (ssRNA)
RNA: GGGAGUUCUACAGUCCGACGAUCUCGCAUGGAAGAAGUCGAUCCGGUCCGGAGUUCACCGUUGGAAAACUUGUGCCCUUGUACCGUGUCCCCAUGGGCUCCCACUGCAGCCUCGAGUGCCCCUGUCCCACCUGGCUCCCCCUGCAACAGAGGAUUGAGCAUCA
B3: chr15:48879495:48879609:+|3pUTR|ENSG00000255302|msi1|FALSE|bound_elsewhere (ssRNA)
RNA: GGGAGUUCUACAGUCCGACGAUCGACACUAAAUGUGUGUGAAUGUACAAAGAAAACAAACCAUUGCUUAUGCUGUUAUAUACUAGAGAAAUUUUGUUUUGCUUGCUGUUUUAACUUGACAGAUGAAGGACUUUAGUUGAACUUCAACAGAGGAUUGAGCAUCA
B4: chr3:141443649:141443750:+|CDS|ENSG00000177311|unk|FALSE|unique (ssRNA)
RNA: GGGAGUUCUACAGUCCGACGAUCCCUACCAUUGGACAAAAUGGAGGUUCAUUCACAGGUCCAGAACCUUUAUUAUCUGAAAAUAGGAUUGGUGAAUUUUCCAGUACCGGAAGUACUUUGCCAGACACGGACCACAUGGUUAAACAACAGAGGAUUGAGCAUCA
B5: chr11:56742830:56743766:-|CDS|ENSG00000172457|control|control|control (ssRNA)
RNA: GGGAGUUCUACAGUCCGACGAUCGACAAAGUAGCUGCUCUGUUCUACACCGUGAUCAACCCACUGCUCAACCCUCUCAUCUAUAGCCUGAGAAACAAAGAUAUCAAAGAGGCCUUCAGGAAAGCAACACAGACUAUACAACCACAACAGAGGAUUGAGCAUCA
B6: chr5:181194513:181194614:-|3pUTR|ENSG00000146054|unk|FALSE|unique (ssRNA)
RNA: GGGAGUUCUACAGUCCGACGAUCUCUUUGAGUGACAAGCCCGGGACAACAGCCAGUGGGCAUCACGGCUCUCCAGCACUCCUUAGCCGGAGGAUACAGAGUGAUGGGUGCAUCCUGACCAAUGCGACAACCAACACGUGCUCUCAACAGAGGAUUGAGCAUCA
B7: ENSG00000124766:be:win_2501|3pUTR|ENSG00000124766|bound_else_gene|NA|bound_elsewhere_windowed (ssRNA)
RNA: GGGAGUUCUACAGUCCGACGAUCGUGUUGGAUUAUUUCAAUGGUGGGGUUAAUAUAGCAUGUUAUCCUGUCUAUCUUUUAAAGAUUUCUGUAUAAGACUGUUGAGCAGUUUUUAAAAUAGUGUAGGAUAAUAUAAAAAGCAGACAACAGAGGAUUGAGCAUCA
B8: chr7:20412513:20412614:+|3pUTR|ENSG00000105855|msi1|FALSE|unique (ssRNA)
RNA: GGGAGUUCUACAGUCCGACGAUCUCCUUAAAAAUCCAGAGUUUAUAUUUUUUUUAUACCCUCACUUGUUUGCACUAACUUUAUAGUGGACCAAGGCUGUUACCAUAGGAAGGGACAAACUUCCUUGUAGGCAACUCAGUGUUACAACAGAGGAUUGAGCAUCA
B9: chr4:87458373:87458474:+|3pUTR|ENSG00000170502|unk|total|mutant (ssRNA)
RNA: GGGAGUUCUACAGUCCGACGAUCUCCCUCCCGCUCCCCAUCUUCUGAGGCCUGAAGGAUGUUCCUGCCACAUCAAACUCCUUCCGGCAGAGUACCGCCACUGGAUGUACCGUUUAAUGUUUCAUCUGAUUUUUCUUUAAAUUACAACAGAGGAUUGAGCAUCA
B10: chr5:38883864:38883977:+|CDS|ENSG00000145623|unk|total|mutant (ssRNA)
RNA: GGGAGUUCUACAGUCCGACGAUCGUUUUCCCUAAAGAUAAGCUGGUGGAAGAAGGCACCAAUGUUACCAUUUGUUACGUUUCCCGGAACAUUCAAAAUAAUGUAUCCUGUUAUUUGGAAGGGAAACAGAUUCAUGGAGAACAACAACAGAGGAUUGAGCAUCA
B11: chr15:38470281:38470388:+|CDS|ENSG00000171262|unk|FALSE|unique (ssRNA)
RNA: GGGAGUUCUACAGUCCGACGAUCCUUCAAGCUUCACAGAUAUUACAGAACAAGAAACAUAAAAAUUCUCAAUUAGAUAAAAAUAGUGAAGUUUAUCAGGAAGUUCAAGCUAUGUUUGAUACACUUGGUAUACCCAAGUCAACACAACAGAGGAUUGAGCAUCA
B12: ENSG00000107863:be:win_2201|CDS|ENSG00000107863|bound_else_gene|NA|bound_elsewhere_windowed (ssRNA)
RNA: GGGAGUUCUACAGUCCGACGAUCCUGUCAUCCUAAGGGAAAAACCUCCAUCUGGACGCCAGACACCGCAGCCUUUAAGGCAUCAGUCUUACAUCUUGGCAGUAAAUGACCAGGAGACCGGGUCAGACACUACCUGCUGGCUGCCAACAGAGGAUUGAGCAUCA
B13: chr17:3714672:3714773:-|3pUTR|ENSG00000083457|msi1_unk|FALSE|overlapping (ssRNA)
RNA: GGGAGUUCUACAGUCCGACGAUCUUUGCAUUACUUUUUCCUUCAGGAUGAUCUAGAGCAGCAUGGAGCUGUUGGUAGAAUAUUAGUUUUUAACCAUACAUUGUCCCAAAAGUGUCUGUGCAUUGUGCAAAAAGUAAACUUAGGCAACAGAGGAUUGAGCAUCA
B14: chr1:153626309:153626462:-|CDS|ENSG00000189171|unk|total|mutant (ssRNA)
RNA: GGGAGUUCUACAGUCCGACGAUCUCCAUUGAGACCGUGGUCACCACCUUCUUCACCUUUGCAAGGCAGGAGGGCCGGAAGGACCGCCUCAGCGUCAACGAGUUCAAAGAGCUGGUUACCCAGCAGUUGCCCCAUCUGCUCAAGCAACAGAGGAUUGAGCAUCA
B15: ENSG00000107863:be:win_6551|3pUTR|ENSG00000107863|bound_else_gene|NA|bound_elsewhere_windowed (ssRNA)
RNA: GGGAGUUCUACAGUCCGACGAUCUGGAUGGAACUGGCUUCUUUAUCGAGAAGAAUAUAAUUCUGCAUGAGGACUUAAUGAAUCCAAACCUGUGUCAUGCCUGUGUGCAUACCCAAUUAAACACUGGAAAUAAAAAUUGUUUUGCAACAGAGGAUUGAGCAUCA
B16: chr6:142075650:142076049:-|CDS|ENSG00000135577|control|control|control (ssRNA)
RNA: GGGAGUUCUACAGUCCGACGAUCGUAUCGGUCUUUCAACUAUAAUGAGAUUGAUCCAUCUCUAGGCCACAUGAUUGUCACCUUAGUUGCCCGGGUUCUCAGUUUUGGCAAUUCUUGUGUCAACCCAUUUGCUCUUUACCUACUCAACAGAGGAUUGAGCAUCA
B17: chr2:130346496:130346597:+|3pUTR|ENSG00000136718|unk|total|mutant (ssRNA)
RNA: GGGAGUUCUACAGUCCGACGAUCACUCAGUCAGGACAUGGACUUGGAACUCAGGAUGGGGCUGUCACCGACAGACCCACCAGCCGGAACUGUCACAGAAUGGCCUGCUGAACUGGGAUGUGGAACUGUGGCGGGUGGAGAGGUCAACAGAGGAUUGAGCAUCA
B18: chr2:219567793:219567894:-|CDS|ENSG00000124006|msi1|FALSE|unique (ssRNA)
RNA: GGGAGUUCUACAGUCCGACGAUCCCUGCCCCGGAAGCUCGACGUCCUGGAAGGAGAGAAUGCUGUGCUGCUAGUGGAAACUCUAGAGGCCGGGGUCGAGGGACGCUGGAGCCGUGAUGGGGAGGAGCUGCCGGUCAUCUGCCACAACAGAGGAUUGAGCAUCA
B19: chr16:30603633:30603734:-|3pUTR|ENSG00000156853|unk|FALSE|unique (ssRNA)
RNA: GGGAGUUCUACAGUCCGACGAUCGUUAAGUACCACAUUCUCCUCUAAACCUUGCCUACGACAUGUUUAAUACUUCAUCUACAUAGCAGCCCUUCAGAUAAUCACAACCACUUUGCCCCCAAGUUUUCAGGUUAAGUAGCAUGACAACAGAGGAUUGAGCAUCA
B20: chr22:37084134:37084404:-|CDS|ENSG00000187045|control|control|control (ssRNA)
RNA: GGGAGUUCUACAGUCCGACGAUCCUUCCUCUCCUCCCUCUGGCUUCCUUUCCUCCCUCCCCCUCCCUCUCUUCCCUCCUCAAUAGUGACCCCCUCAUUGGAAGCCCAAGUCCCCAAUCUCAGAGGGGCAGCAAGGGGAGCGAGCAACAGAGGAUUGAGCAUCA
B21: chr6:41683977:41685078:-|three_prime_utr|ENSG00000112561|control|control|control (ssRNA)
RNA: GGGAGUUCUACAGUCCGACGAUCUCCCCGUCCGGCAUGAACAUGGCUGAGCUGGCCCAGCAGGUGGUGAAGCAGGAGCUGCCUAGCGAAGAGGGCCCAGGGGAGGCCCUGAUGCUGGGGGCUGAGGUCCCUGACCCUGAGCCACAACAGAGGAUUGAGCAUCA
B22: chr11:10770493:10770605:+|CDS|ENSG00000198730|unk|total|mutant (ssRNA)
RNA: GGGAGUUCUACAGUCCGACGAUCACAUGUGGCACCCAGUGAUACAGUUCUUAUGUUUAAUGUGGCCUUGGUCCUGCAAAGAUCCGCUACCUCUGUCCUGAAAGAUGAAAAAAGUAAUCUGAAGGAAGUACUUAAUGCUGUGAACAACAGAGGAUUGAGCAUCA

Each binder was assayed against T1, UNK ZnF1-6 (called full-length) (assay: nsRBNS (natural sequence RNA bind-n-seq); RBNS binding buffer (assumed for nsRBNS): 25 mM Tris pH 7.5, 150 mM KCl, 3 mM MgCl2, 0.01% Triton X-100, 500 ug/ml BSA, 20 U/ml SUPERase-In, 4 C; UNK is unkempt and MSI1 is Musashi-1; names of the RNAs are library labels; protein concentration not given here; high values mean tight binding).

Binder | binding signal
B1 | 0.461 enrichment R
B2 | 0.76 enrichment R
B3 | 0.582 enrichment R
B4 | 0.432 enrichment R
B5 | 0.777 enrichment R
B6 | 0.573 enrichment R
B7 | 1.78 enrichment R
B8 | 0.56 enrichment R
B9 | 0.859 enrichment R
B10 | 0.291 enrichment R
B11 | 0.862 enrichment R
B12 | 0.44 enrichment R
B13 | 0.861 enrichment R
B14 | 0.514 enrichment R
B15 | 0.294 enrichment R
B16 | 0.405 enrichment R
B17 | 1.17 enrichment R
B18 | 0.702 enrichment R
B19 | 0.688 enrichment R
B20 | 1.26 enrichment R
B21 | 0.619 enrichment R
B22 | 0.928 enrichment R
